# The list shows a part of the results. Binding of human antibodies (heavy:light variable regions, tested as scFv in one mRNA-display pool) to influenza hemagglutinin, with or without the stem antibody CR9114 bound first. Score = (mean enrichment − median) / interquartile range of that screen; higher = more enriched, 0 = typical non-binder. Active = above the paper's cut-off per screen: stems 28; unblocked H1 Solomon Islands 5, H1 Michigan 3, H3 5, H5 19, H7 2.85, both B 5; blocked 9, 7, H5 10, H7 10, B Phuket 10, B Lee 11.5. Scores are scaled within each screen and are no affinities; replicates correlate at about 0.6 to 0.9, and antibodies rare in the pool are noisier.
# B1: 56.f.01 (protein)
# chain 1: QVHLVQSGAEVKKPGASVKVSCKVSGHTLSELSIHWVRQAPGNVLEWMGGFDPEDGESISAQMFQGRVIMTEDSSKDTAYMELSSLTSEDTAVYYCATGSYCSATYCSFDYWGQGTLVTVSS
# chain 2: AIRMTQSPVSLSASVGDRVTITCWASQGISNYLVWIQQKPAKAPRLFIYYASSLQSGVPSRFSGSGSGTDYTLTIISLQPEDFATYYCQQFYGSLPLTFGGGTKVEIK
# B2: 56.b.16 (protein)
# chain 1: EVQLVESGGGLVQPGGSLRLSCSASGFNVSDYAMHWVRQAPGKGLEYVSLISSNGFSTFYTDSVKGRFIISRDNSKNTLYLQMSSLRHDDTAVYYCVRAESHDFWSGYYWGHGTLVTVSS
# chain 2: DVVMTPGSVSLPVTLGQPASISCRSSQSLVYSDGNTYLSWFQQRPGQSPRRLIYKVSNRDSGVPDRFSGSGSGTDFTLKIRGMEAEDVGVYYCLQTTHWPPTFGQGTKVEIK
# B3: AG7-3B02 (protein)
# chain 1: VQLVESGGVVVQPGGSLRLSCAASGFTFDDCAMHWVRQAPGKGLEWVSLITWDGGSTYYADSVKGRFTISRDNNKNSLYLQMNSLRAEDTALYYCAKDMSSGYYSIFDSWGQGTLVTVSS
# chain 2: EIVMTQSPATLSVSPGERATLSCRASQTISGNLAWYQQKPGQAPRLLIYYASARATGIPARFSGSGSGTEFTLTISSLQSEDFALYYCQHYNNWPPQFGPGTKVDIK
# B4: R95-2C10 (protein)
# chain 1: EVQLVESGGVAVKPGGSLRLSCAASGFTFDDYVMHWVRQVPGKGLEWVSLISWDGGSRYYADSVKGRFTISRDNSKNSLYLQMNNLRPEDTALYYCVKDRESGNYYHFYYMDAWGKGTTVTVS
# chain 2: QSVLTQPPSVSAAPGQKVTISCSGSSSNIGNNHVSWFQQLPGTAPKLLIYDNDKRPSGIPDRFSGSKSGTSATLGITGLQTGDEADYYCETWDSSLSGGGVVFGGGTRLTVI
# B5: R95-1E01 (protein)
# chain 1: EVQLVESGGGLVQPGRSLRLSCAGDGFSFDDHAMHWVRQAPGKGLEWVSGISWNSGSIGYVDSVKGRFTISRDNAKNSLYLQMNTLRPEDTALYYCVRDMNWNSQIGGYYFDYWGQGALVTVSS
# chain 2: DIQMTQSPSSLSASVGDRVTITCRASHNITNFLNWYQQKPGKAPKLLIYGTSSLQSGVPSRFSGSGSGTDFTLAISSLHPEDFATYYCQQSYSIHPYTFGQGTKLDIK
# B6: AG12-C06 (protein)
# chain 1: VQLQESGPGMVRPSQTLSLFCTVSGDSIGSGTDYWNWVRQPPGKGLEWVGDIPDRGNPNYNPSLRSRLSISRDTSKNRISLTLTSVTAADTAVYYCARASGTRVATITDYYGMDVWGQGTTVTVSS
# chain 2: DIQMTQSPSSLSASVGDRVTITCRASQAITNHLNWYQSKPGKAPKFLISAASTLQNGVPSRFSGSGSGTDYSLTITNLQPDDFATYYCQQSHSNPITFGQGTRLEIK
# B7: K77-1G04 (protein)
# chain 1: QVHLVQSGAEVKNPGASVKVSCKASGYTFTEYYMHWVRQSPGQGLEWMGWINPKTGGTNYAQKFQGWVTMTRDTSIKTVYMELSRLRCDDTAVYYCARDDGYTTGADVWGRGTTVTVSS
# chain 2: SYELTQPPSVSVSPGQTARITCSGDALPKQYAYWYQQKPGQAPVMVIYKDSERPSGIPERFSGSSSGTTVTLTISGVQAEDEADYYCQSADSGGTYQLFGGGTKLT
# B8: K77-2G05 (protein)
# chain 1: QVQLQESGPGRVKPSETLSLTCTVSGGSVSSDSFYWSWIRQPPGRGLEWIGYISKSGSTNYTPSLKSRVTVSIETSKNQISLNLSSVTAADTAVYYCARAFRGYCITTDCYIFDYWGQGTLVTVSS
# chain 2: DIVMTQSPDSLAVSLGERATINCKSNRSILFSSNNKNYLAWYQQKPGQPPKLLIYWASTRESGVPDRFSGSGSGTDFTLTISRLQAEDVAVYYCQQYYGTPLTFGGGTKVEIK
# B9: K77-2F01 (protein)
# chain 1: QVQLQESGPGLVKPSGTLSLTCAVSGGSISSSHWWSWVRQPPGKGLEWIGEIHHSGTSNHNPSVESRVNISVDKSKNHFSLELTSVTAADTAVYFCARVSTVAGHRSSYCLDSWGQGTLVAVSS
# chain 2: QSALTQPASVSGSPGQSITISCTGTSSDVGGYDYVSWYQQHPGKAPKVIIYDVSYRPSGVSNRFSGSKSGNMASLTISGLQAEDEADYYCSSYTTTFTLLFGGGTKVT
# B10: K77-2A04 (protein)
# chain 1: QVHLQESGPGLVKPSGTLSLTCDVSGVSIRSPNWWSWVRQSPGKGLEWIGEIYHSADTNYNPSLKSRVTISLDKSKNQFSLKLISVTAADTAVYYCGRDRYDSSGFYRGYYYGIDVWGQGTTVTVS
# chain 2: DVVMTQSPLSLPVTLGQAASISCRSGQSLVHTDGNTYLNWFQQRPGQSPRRLIYQVSNRDSGVPDRFSGSGSGTDFTLKISRVEAEDVAVYYCMQGTHWPPTFGQGTKVEVK
# B11: 039-10-4B05 (protein)
# chain 1: QVQLVQSGAEVKKPGASVKVSCETSGYMFTAYATHWVRQAPGQGLEWMGWVNGLNGNTKYSEKFQGRITITRDTSATTAYMELSSLRSDDTAVYYCARGNIANWFDPWGQGTLVTVSS
# chain 2: DIQMTQSPSSLSASVGDRVTITCRASQDIRKSLAWYQQKPGKAPKVLVFATSRLEDGVPSRFSGSGSGTEYTLTISSLQPEDFATYHCQQYQSTPYTFGQGTKVEIK
# B12: antibody 3E05 (protein)
# chain 1: VQLVQSGAEVKKPGASVKVSCKASGYTFTTYDIHWVRQAPGQGLEWMGWLNPNSGYTVYAQKFQGRLTMTRNTSIRIAYLELSSLRSEDTAVYYCARDDGYCTSNNCYSRGMDVWGQGTTVTVSS
# chain 2: EIVLTQSPGTLSLSPGERATLSCRASQNFSSNYLAWYQQKPGQAPRLLIYGASSRATGIPDRFSGSGSGTDFTLTISRLEPEDFAVYYCHQYGRSFGQGTKVEIK
# Molecular target: Influenza A H1N1 A/Michigan/45/2015 hemagglutinin ectodomain
# Assay: mRNA display binding score; higher = more enriched on the antigen
# Conditions: antigen blocked with: 2 µM CR9114 IgG
# Procedure: (§1)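 A pool of natively paired antibodies, displayed as scFv on mRNA, was selected once on antigen-coated beads and sequenced before and after; two replicates.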
row,Binder,mRNA display binding score
1,B1,inactive: -0.319
2,B2,inactive: 3.2
3,B3,inactive: -0.168
4,B4,inactive: -0.57
5,B5,inactive: -0.17
6,B6,inactive: -0.577
7,B7,inactive: -0.535
8,B8,inactive: -0.206
9,B9,inactive: -0.469
10,B10,inactive: 0.767
11,B11,inactive: -0.194
12,B12,inactive: -0.498

# Same assay, conditions: antigen blocked with: nothing
row,Binder,mRNA display binding score
1,B1,inactive: -0.557
2,B2,inactive: 0.49
3,B3,inactive: 0.465
4,B4,inactive: -0.937
5,B5,inactive: -0.339
6,B6,inactive: -0.178
7,B7,inactive: -0.065
8,B8,inactive: 1.54
9,B9,inactive: -0.731
10,B10,inactive: 0.965
11,B11,inactive: -0.252
12,B12,inactive: -0.364

# Molecular target: Influenza A H1N1 A/Solomon Islands/3/2006 hemagglutinin ectodomain
# Assay: as above
# Conditions: antigen blocked with: 2 µM CR9114 IgG
# Procedure: as §1
row,Binder,mRNA display binding score
1,B1,inactive: -0.584
2,B2,inactive: -0.549
3,B3,inactive: -0.503
4,B4,inactive: -0.595
5,B5,inactive: -0.599
6,B6,inactive: -0.47
7,B7,inactive: -0.221
8,B8,inactive: 0.341
9,B9,inactive: -0.577
10,B10,inactive: 0.451
11,B11,inactive: -0.681
12,B12,inactive: -0.786

# Same assay, conditions: antigen blocked with: nothing
row,Binder,mRNA display binding score
1,B1,inactive: -0.431
2,B2,inactive: 0.947
3,B3,inactive: 0.599
4,B4,inactive: -0.528
5,B5,inactive: 1.05
6,B6,inactive: -0.691
7,B7,inactive: -0.467
8,B8,inactive: 0.0952
9,B9,inactive: -0.189
10,B10,inactive: 0.112
11,B11,inactive: -0.258
12,B12,inactive: 1.17

# Molecular target: Influenza A H3N2 A/Singapore/INFIMH-16-0019/2016 hemagglutinin ectodomain
# Assay: as above
# Conditions: antigen blocked with: nothing
# Procedure: as §1
row,Binder,mRNA display binding score
1,B1,inactive: -0.0358
2,B2,inactive: 0.335
3,B3,inactive: 2.31
4,B4,inactive: 0.706
5,B5,inactive: -0.375
6,B6,inactive: -0.483
7,B7,inactive: 0.66
8,B8,inactive: -0.443
9,B9,inactive: -0.339
10,B10,inactive: 1.18
11,B11,inactive: -0.523
12,B12,inactive: -0.333

# Molecular target: Influenza A H5N1 A/Qinghai/1A/2005 hemagglutinin ectodomain
# Assay: as above
# Conditions: antigen blocked with: 2 µM CR9114 IgG
# Procedure: as §1
row,Binder,mRNA display binding score
1,B1,inactive: -0.807
2,B2,inactive: -0.355
3,B3,inactive: -0.102
4,B4,inactive: -1.11
5,B5,inactive: 0.0586
6,B6,inactive: -0.671
7,B7,inactive: -0.756
8,B8,inactive: 1.19
9,B9,inactive: -0.802
10,B10,inactive: 4.4
11,B11,inactive: -0.265
12,B12,inactive: -0.246

# Same assay, conditions: antigen blocked with: nothing
row,Binder,mRNA display binding score
1,B1,inactive: -0.639
2,B2,inactive: -0.479
3,B3,inactive: 0.138
4,B4,inactive: -0.659
5,B5,inactive: -0.422
6,B6,inactive: -0.478
7,B7,inactive: 0.0457
8,B8,inactive: 0.172
9,B9,inactive: -0.58
10,B10,inactive: 18.9
11,B11,inactive: -0.335
12,B12,inactive: -0.479

# Molecular target: Influenza A H7N9 A/Shanghai/2/2013 hemagglutinin ectodomain
# Assay: as above
# Conditions: antigen blocked with: 2 µM CR9114 IgG
# Procedure: as §1
row,Binder,mRNA display binding score
1,B1,inactive: -0.916
2,B2,inactive: 0.188
3,B3,inactive: -0.974
4,B4,inactive: -0.908
5,B5,inactive: -0.488
6,B6,inactive: -1.1
7,B7,inactive: 0.202
8,B8,inactive: -0.478
9,B9,inactive: -0.432
10,B10,inactive: 0.723
11,B11,inactive: -0.163
12,B12,inactive: -0.166

# Same assay, conditions: antigen blocked with: nothing
row,Binder,mRNA display binding score
1,B1,inactive: -0.551
2,B2,inactive: -0.518
3,B3,inactive: -0.096
4,B4,inactive: -0.698
5,B5,inactive: -0.622
6,B6,inactive: -0.568
7,B7,inactive: -0.233
8,B8,inactive: 1.07
9,B9,inactive: -0.625
10,B10,inactive: 0.614
11,B11,inactive: -0.444
12,B12,inactive: -0.127

# Molecular target: Influenza B/Lee/1940 hemagglutinin ectodomain
# Assay: as above
# Conditions: antigen blocked with: 2 µM CR9114 IgG
# Procedure: as §1
row,Binder,mRNA display binding score
1,B1,inactive: 0.236
2,B2,inactive: -0.195
3,B3,inactive: 0.057
4,B4,inactive: -0.141
5,B5,inactive: 0.555
6,B6,inactive: -0.539
7,B7,inactive: 0.931
8,B8,inactive: 1.39
9,B9,inactive: 0.416
10,B10,inactive: 0.454
11,B11,inactive: 0.287
12,B12,inactive: 1.32

# Same assay, conditions: antigen blocked with: nothing
row,Binder,mRNA display binding score
1,B1,inactive: -0.433
2,B2,inactive: -0.348
3,B3,inactive: -0.105
4,B4,inactive: -0.359
5,B5,inactive: 0.112
6,B6,inactive: -0.403
7,B7,inactive: -0.191
8,B8,inactive: -0.0821
9,B9,inactive: -0.168
10,B10,active: 154
11,B11,inactive: -0.407
12,B12,inactive: 1.79

# Molecular target: Influenza B/Phuket/3073/2013 hemagglutinin ectodomain
# Assay: as above
# Conditions: antigen blocked with: 2 µM CR9114 IgG
# Procedure: as §1
row,Binder,mRNA display binding score
1,B1,inactive: -0.607
2,B2,inactive: 0.209
3,B3,inactive: 0.539
4,B4,inactive: -0.361
5,B5,inactive: -0.36
6,B6,inactive: -0.628
7,B7,inactive: -0.528
8,B8,inactive: 1.12
9,B9,inactive: -0.31
10,B10,active: 12.5
11,B11,inactive: -0.445
12,B12,inactive: -0.674

# Same assay, conditions: antigen blocked with: nothing
row,Binder,mRNA display binding score
1,B1,inactive: -0.406
2,B2,inactive: 0.573
3,B3,inactive: 0.232
4,B4,inactive: -0.375
5,B5,inactive: -0.00151
6,B6,inactive: -0.418
7,B7,inactive: -0.172
8,B8,inactive: 1.18
9,B9,inactive: -0.147
10,B10,active: 107
11,B11,inactive: 0.00109
12,B12,inactive: -0.158

# — the supplement of paper PMC11383711
